In PubChem BioAssay AID1508624 (National Center for Advancing Translational Sciences (NCATS), 2021):
Out of some 48,000 compounds screened, about 120 (0.25%) were called active. Another 4% or so got no clear call; they are omitted. Calls come from the whole dose curve; as a rule, active = well fitted activation curve with a large enough effect; inconclusive = small, poorly fitted or top-dose-only effect, or another doubt; inactive = no such curve, though single readings can be large or run the other way. Some of the results follow.

Assay: Primary qHTS for Identification of Small Molecule Activators of Huntingtin-Antisense Promoter Activity; note: nearly all actives have a fitted effect of over 55% in size
Settings: HEK293 HTT-AS promoter firefly luciferase reporter, 24 h; series mostly up to 57.5 µM; activity change, positive = activation: at the top concentration
Method in brief: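 HEK293 luciferase promoter-reporter cells (2,500/well) plated 24 h, then compounds added at up to 57.5 uM final for 24 h at 37 °C. Firefly luminescence by Dual-Glo, normalized to vehicle (0%) and zero RLU (-100%).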

Activity change, positive = activation, inactive:
CCCNC(=O)Cn1nc(-c2ccc(C)c(C)c2)c2cnc3ccc(OC)cc3c21 -25.5%
CN1CCc2cccc3c2[C@H]1Cc1ccc(O)c(O)c1-3 -1.62%
C[C@H](NC(=O)Cc1cc(F)cc(F)c1)C(=O)N[C@H](C(=O)OC(C)(C)C)c1ccccc1 -12.3%
COc1ccccc1NC(=O)Cn1cnc2ccc(S(=O)(=O)N3CCC(C)CC3)cc2c1=O -18.5%
COc1ccc2oc(=O)c(C(=O)NCCc3c(C)[nH]c4ccc(C)cc34)cc2c1 -28.1%
CN(C)c1ccc(O)c2c1C[C@H]1C[C@H]3[C@H](N(C)C)C(=O)C(C(N)=O)=C(O)[C@@]3(O)C(=O)C1=C2O
Cc1ccc(NC(=O)C2CCCN(C(=O)c3cnn(-c4ccccc4)c3-n3cccc3)C2)cc1 (stereo not given) -38%
COc1ccc(NC(=O)Cn2c(=O)n(Cc3ccco3)c(=O)c3sc4ccccc4c32)c(OC)c1 -24.8%
Cc1cc(OCC(=O)N(Cc2ccc(N(C)C)cc2)Cc2ccco2)cc(C)c1Cl -35.2%
CCOC(=O)c1ccc(OC(=O)c2cn(-c3ccc(C)cc3)c(=O)c3ccccc23)cc1 -21.1%
Cc1nn(-c2ccccc2)c(-n2cccc2)c1C(=O)N1CCN(c2ccccc2)CC1 -21%
COc1ccc(CNC(=O)c2cc3sccc3n2Cc2ccc(F)cc2)cc1 -30%
COCCCN1C(=O)c2[nH]nc(-c3cc(C)ccc3O)c2C1c1ccc(F)cc1 (stereo not given) -21.3%
Cc1ccccc1NC(=O)C(Cc1ccccc1)N1Cc2ccccc2C1=O (stereo not given) -1.02%
COc1ccc(CNCCC(c2ccc(C)cc2)c2ccco2)cc1 (stereo not given) -24.8%
Cc1cccc(OCC(=O)Nc2ccc(S(=O)(=O)Nc3onc(C)c3C)cc2)c1C -15.3%
CC(C)CCSc1nnc2n(-c3ccccc3)c(=O)c3c4c(sc3n12)CC(C)CC4 (stereo not given) -24.2%
CCOC(=O)c1c(C)[nH]c(C)c1S(=O)(=O)NCC(=O)NCc1cccc(Br)c1 -8.7%
Cc1cc(C)nc(-n2nc(C)c3c2N(Cc2ccccc2C)C(=O)CC3c2ccc(Cl)cc2)n1 (stereo not given) -20.9%
COC(=O)c1ccccc1N(C)S(=O)(=O)c1cc2c3c(c1)CC(=O)N3CCC2 -9.08%
CCc1ccc(NC(=O)Cn2c(=O)nc(-c3ccccc3F)c3cc(Cl)ccc32)cc1 22.9%
O=C(Nc1ccc(Oc2ccccc2)cc1)c1ccc(F)c(S(=O)(=O)N2CCN(c3ccccc3F)CC2)c1 -44.4%
Cc1ccc2cc3cc(C(=O)N4CCN(c5ccccc5)CC4)sc3nc2c1 16%
COc1cccc(NC(=O)/C(C#N)=C/c2ccc(-c3ccc(C)cc3)o2)c1 -20.9%
O=C(Cn1cc(S(=O)(=O)Cc2cccc(Cl)c2)c2ccccc21)NCc1ccccc1Cl -34%
COc1ccc(C(=O)NCc2nc(-c3cccc(C)c3)no2)cc1OC -26.5%
COc1cccc(C(=O)COC(=O)c2cc(-c3cccs3)nc3ccccc23)c1 -15.6%
Cc1cc(NS(=O)(=O)c2cn(C)c(C)n2)ccc1Br 7.43%
COc1cccc(CNC(=O)CCc2c(C)nc3c4c(C)cc(C)nc4nn3c2C)c1 -11.4%
Cc1ccccc1OCC(=O)Nc1nnc(SCc2cc(=O)n3cc(Cl)ccc3n2)s1 -2.83%
Cc1ccc(C)c(CN2C(=O)c3ccccc3S(=O)(=O)c3ccc(C(=O)NCCc4ccc(Cl)cc4)cc32)c1 -23.5%
CCc1ccccc1NC(=O)C1CCN(c2nc3ccccc3[nH]2)CC1 -4.73%
Cc1ccc(CCNc2nc3ccccc3c3nc(-c4cccnc4)nn23)cc1 -8.73%
Cc1ccc(NC(=O)c2cccc(NC(=O)N3CCSc4ncccc43)c2)cc1F 9.77%
CCOc1ccc(CNC(=O)c2ccc(NC(=O)N3CCSc4ncccc43)cc2)cc1 -9.55%
CCCN1C(=O)c2oc3cc(C)cc(C)c3c(=O)c2C1c1ccc(F)cc1 (stereo not given) -10.9%
CCN(CC)CCCNC(=O)CCc1c(C)nc2c(c1C)c(=O)n(C)c(=O)n2C -11.8%
Cc1ccc(C)c(NC(=O)c2cnc3sc(N4CCOCC4)nn3c2=O)c1 -2.97%
COc1ccc(-c2cc(C(F)(F)F)nc(SCC(=O)Nc3ccc(O)cc3)n2)cc1OC -9.23%
CCCCOCCOC(=O)c1cccnc1 -0.142%
Cc1cc(=O)c2cc(C(=O)Nc3cccc(C)c3C)ccc2[nH]1 -27.6%
C[C@H](NC(=O)[C@@H](O)c1cc(F)cc(F)c1)C(=O)N[C@@H]1C(=O)N(C)c2ccccc2-c2ccccc21 -5.83%
CCCNc1ncnc2c1c(-c1ccccc1)cn2-c1ccccc1 -20.8%
CCS(=O)(=O)Nc1ccc2[nH]c(O)c(C(=Nc3ccc(CN4CCCCC4)cc3)c3ccccc3)c2c1 -38.7%
CCn1cc(C(=O)N2CCN(c3cccc(C)c3)C(C)C2)c(=O)c2cc(S(=O)(=O)N3CCOCC3)ccc21 (stereo not given) -1.06%
COc1ccc(-c2nsc(NC(=O)c3oc4ccccc4c3C)n2)cc1 -16.5%
Cc1coc2c(C)c3oc(=O)c(CCC(=O)N4CCCCC4)c(C)c3cc12 -29.5%
O=C(Cn1ccc2cc(S(=O)(=O)N3CCCCCC3)ccc21)NCc1cccc(Cl)c1 -30.6%
CN(C)c1ccc(CNC(=O)CCCN2C(=O)CCn3nc(-c4cn(C)c5ccccc45)cc32)cc1 -16.3%
C[C@]12CC[C@@H]3c4ccc(O)cc4CC[C@H]3[C@@H]1CC[C@@H]2OC(=O)CCC1CCCC1 2.2%
CCCN1CCN(CCCNC(=O)c2cc3c(s2)-c2ccccc2OC3)CC1 -16%
COCCn1c(C)cc(O)c(C(c2ccccc2Cl)N2CCCCC2)c1=O (stereo not given) -4.33%
Cc1c(NS(=O)(=O)c2ccc(Cl)cc2)c(=O)n(-c2ccccc2)n1C 1.3%
Cc1nc2c(c(C)c1CCC(=O)Nc1ccc(F)cc1)c(=O)n(C)c(=O)n2C -3.29%
COc1ccc(C2=NN(CCC(=O)NCCc3ccccc3)C(=O)CC2)cc1 -7.69%
COc1ccccc1CCNC(=O)C(=O)NCC(c1cccnc1)N1CCN(c2ccccc2)CC1 (stereo not given) -43.8%
COCCn1c(C)cc(O)c(C(c2ccccc2F)N2CCN(c3ccccc3)CC2)c1=O (stereo not given) -1.46%
CCc1cccc(-n2nnc(S(=O)(=O)c3ccc(OC)cc3)c2C)c1 -33.6%
Cc1ccc(Cn2cc(CCC(=O)NCC(C)c3ccccc3)c3ccccc32)cc1 (stereo not given) -36.7%
Cc1cccc(C)c1NC(=O)C1CCCN1S(=O)(=O)c1cccc2nsnc12 (stereo not given) 3.07% [at 11.5 µM, percent change from vehicle, -100% = no light]
